# Data: PubChem BioAssay AID504466 (National Center for Advancing Translational Sciences (NCATS), 2011)
# Screen size: about 330,000 compounds; about 4,200 (1.3%) were called active. Inconclusive results, whose numbers are uncertain, are shown with a selection of clear calls. Calls follow the shape of the dose curve; as a rule, active = well fitted activation curve with a large enough effect; inconclusive = small, poorly fitted or top-dose-only effect; inactive = no such curve, though single readings can be large or run the other way. Potencies of inconclusive entries are doubtful fits and often do not repeat.
# Test: qHTS screen for small molecules that induce genotoxicity in human embryonic kidney (HEK293T) cells expressing luciferase-tagged ELG1; also: nearly all actives have a fitted effect of over 60% in size
# Conditions: HEK293T ELG1-luciferase reporter, luminescence, 16 h; series mostly up to 46 µM
# In short: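 Luminescence read-out: rising ELG1-luciferase signal, reflecting elevated ELG1 protein under genetic stress, flags genotoxic compounds. Cells were treated for 16 hr at 37 °C before ONE-Glo detection.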
# Potency is read from the fitted curve at half-maximal effect; tags tell the direction and shape of the fitted curve.
row,SMILES,Potency
1,COc1ccc(Cl)cc1NC(=O)CN(C)C(=O)c1ccc(N2CCCCC2)c([N+](=O)[O-])c1,"inconclusive: 29.1 µM [activator, partial curve, poor fit]"
2,CC(C)CC(=O)Nc1ccc2nn(-c3ccccc3)nc2c1,"inconclusive: 2.31 µM [activator, full curve]"
3,Cc1snc2sc(C(=O)c3ccc(F)cc3)c(N)c12,"inconclusive: 11.6 µM [activator, partial curve, poor fit]"
4,Cc1ccc(C)n1-c1ccc(C(=O)NCc2ccncc2)cc1,"inconclusive: 20.6 µM [activator, single point]"
5,CSCCC(NS(=O)(=O)c1ccc2c(c1)OCCO2)C(=O)N(C)Cc1ccc(C)cc1 (configuration not stated),inactive
6,Cc1cccc(OCCOc2ccccc2C=C(C#N)C#N)c1,"inconclusive: 25.9 µM [activator, partial curve, poor fit]"
7,COc1ccc2cc(/C=N/NC(=O)CN(c3ccccc3C)S(=O)(=O)c3ccccc3)c(Cl)nc2c1,"inconclusive: 18.4 µM [activator, partial curve, poor fit]"
8,NS(=O)(=O)c1ccc(NC(=O)COC(=O)COc2ccc(Br)cc2)cc1,inactive
9,Cn1cccc1-c1cc(C(=O)N/N=C/c2cc(Br)ccc2O)[nH]n1,"inconclusive: 3.66 µM [activator, single point]"
10,CCN1CCc2c(sc(NC(=O)c3ccc(S(=O)(=O)N4CCCC4)cc3)c2C(=O)NC)C1,"inconclusive: 29.1 µM [activator, single point]"
11,COc1cc(NC(=O)C/C(C)=N/NC(=O)c2cccs2)c(OC)cc1Cl,"inconclusive: 18.3 µM [activator, partial curve, poor fit]"
12,O=C(O)[C@@H]1CCCN1S(=O)(=O)c1cccc2cccnc12,inactive
13,COc1ccc(-c2oc3ncnc(NCCN4CCOCC4)c3c2-c2ccc(OC)cc2)cc1,inactive
14,CCOC(=O)/C=c1\s/c(=C\c2ccc3c(c2)OCCO3)c(=O)n1CC(=O)NCC1CCCO1 (configuration not stated),"inconclusive: 18.4 µM [activator, partial curve, poor fit]"
15,CC(=O)c1sc(NC(=O)C2COc3ccccc3O2)nc1C (configuration not stated),"inconclusive: 0.82 µM [activator, partial curve, poor fit]"
16,C/C=C(\C)CN1CCC(n2nccc2NC(=O)CCOc2ccccc2)CC1,inactive
17,COc1ccccc1Nc1nc(N)nc(CN2CCN(c3ccccc3F)CC2)n1,inactive
18,COc1ccc(OC)c(C(=O)COC(=O)c2[nH]c(C)c(C(C)=O)c2C)c1,inactive
19,O=c1cc(C(F)(F)F)[nH]c2ccc(OC(F)(F)F)cc12,inactive
20,Cn1c2ccccc2c2cc([N+](=O)[O-])ccc21,inactive
21,Cn1c(CO)cnc1SCC(=O)c1ccc(F)cc1,"inconclusive: 18.3 µM [activator, partial curve, poor fit]"
22,CNC(=O)c1ccc(NC(=O)Nc2ccccc2)cc1,"inconclusive: 14.6 µM [activator, partial curve, poor fit]"
23,COc1ccc(C(=O)NCCC2=CCCCC2)cc1OC1CCN(C(C)C)CC1,inactive

row,SMILES,Potency
1,CC(C)(C)c1ccc(OCc2ccc(C(=O)Nc3cccnc3)o2)cc1,"inconclusive: 2.91 µM [activator, partial curve]"
2,COc1ccc(/C=C/C(=O)NC2=NCCS2)cc1OC,"inconclusive: 13 µM [activator, partial curve]"
3,O=C(NCc1ccc2c(c1)OCO2)Nc1ccc(Cl)cc1,"inconclusive: 20.6 µM [activator, partial curve, poor fit]"
4,S=C(Nc1ccccc1)Nc1ccc(Cl)cc1Cl,active: 20.6 µM
5,N#Cc1c(N)nc2c(c1N)CC(COc1ccccc1)O2 (configuration not stated),"inconclusive: 16.4 µM [activator, partial curve, poor fit]"
6,O=S(=O)(Nc1cccc(-c2ccc(N3CCOCC3)nn2)c1)c1cc(Cl)ccc1Cl,"inconclusive: 18.3 µM [activator, partial curve]"
7,CCN(CC)CCNC(=O)c1ccc(NC(=O)c2ccc(S(=O)(=O)N3CCCCCC3)cc2)cc1,"inconclusive: 29.1 µM [activator, single point]"
8,CCOc1ccc(/C=C/C(=O)c2cc(Br)ccc(=O)c2O)cc1,"inconclusive: 29.1 µM [activator, partial curve, poor fit]"
9,COc1ccc(OC)c(/C=N/NC(=O)C(O)c2ccccc2)c1 (configuration not stated),inactive
10,CCOc1cc(N2CCOCC2)c(OCC)cc1NC(=O)c1cccc(S(=O)(=O)N2CCOCC2)c1,inactive
11,CSc1nnc(C)c(=O)n1COC(=O)c1ccccc1,"inconclusive: 29.1 µM [activator, single point]"
12,O=C1/C(=C\c2ccc(Br)o2)Cc2ccccc21,"inconclusive: 29.1 µM [activator, partial curve, poor fit]"
13,Cc1ccc(C(=O)N2CCN(c3ncc(C(F)(F)F)cc3Cl)CC2)s1,"inconclusive: 25.9 µM [activator, partial curve, poor fit]"
14,CCOC(=O)c1c(NC(=O)CC2Nc3cc(C)c(C)cc3NC2=O)sc(C)c1C (configuration not stated),"inconclusive: 14.6 µM [activator, partial curve, poor fit]"
15,CN1CCN(S(=O)(=O)c2ccc(N3CCN(S(=O)(=O)/C=C/c4ccccc4)CC3)nc2)CC1,"inconclusive: 18.4 µM [activator, single point]"
16,CCCCSc1nnc2c(n1)[nH]c1ccccc12,"inconclusive: 1.16 µM [activator, partial curve, poor fit]"
17,O=C(NCCc1ccccc1)C1CCC(CNc2nc(=S)[nH]c3ccccc23)CC1 (configuration not stated),"inconclusive: 23.1 µM [activator, single point]"
18,O=C(Cc1cn2ccsc2n1)OCc1ccccc1,"inconclusive: 18.4 µM [activator, partial curve, poor fit]"
19,CCCOc1cccc(C(=O)NC(=S)Nc2ccccc2)c1,"inconclusive: 13 µM [activator, partial curve, poor fit]"
20,O=C(OCc1nc2ccccc2s1)c1cnccn1,"inconclusive: 11.6 µM [activator, partial curve]"
21,Cc1ccc(S(=O)(=O)C2(C(=O)Nc3ccc(C(C)C)cc3)CC2)cc1,"inconclusive: 18.3 µM [activator, partial curve, poor fit]"
22,Cn1ccsc1=NC(=O)c1ccc(S(=O)(=O)C(F)F)cc1,"inconclusive: 8.2 µM [activator, partial curve]"
23,CCC(=O)Nc1nc2ccc3nc(C)sc3c2s1,active: 8.2 µM

row,SMILES,Potency
1,Cc1ccc2cc(/C=N/Nc3ccc(C(=O)O)cc3)c(Cl)nc2c1,active: 18.3 µM
2,Nn1c(SCc2ccccc2)nnc1-c1ccccn1,"inconclusive: 20.6 µM [activator, partial curve]"
3,CC(C)C(NC(=O)c1c(F)cccc1F)C(=O)OCN1C(=O)c2ccccc2C1=O (configuration not stated),inactive
4,O=C(Cc1ccc(Br)cc1)NCc1ccccc1,"inconclusive: 29.1 µM [activator, partial curve, poor fit]"
5,O=S(=O)(c1cccnc1)N1CCn2cccc2C1c1ccccc1F (configuration not stated),"inconclusive: 32.6 µM [activator, partial curve, poor fit]"
6,COc1ccc(-c2coc3cc(O)c(OC)cc3c2=O)cc1,"inconclusive: 14.6 µM [activator, partial curve]"
7,Cc1cccc(-c2cc3nc(C)cc(NCCCn4ccnc4)n3n2)c1,"inconclusive: 23.1 µM [activator, single point]"
8,c1ccc(-c2noc(-c3ccco3)n2)nc1,"inconclusive: 2.31 µM [activator, full curve, poor fit]"
9,Clc1ccc(N=NN2CCOCC2)cc1,"inconclusive: 20.6 µM [activator, partial curve, poor fit]"
10,Fc1ccc(-n2nnc(-c3ccnc4ccccc34)n2)cc1,"inconclusive: 7.3 µM [activator, partial curve]"
11,Cn1nccc1C(=O)Nc1ccn(C23CC4CC(CC(C4)C2)C3)n1,"inconclusive: 25.9 µM [activator, partial curve, poor fit]"
12,CCn1c(SCC(=O)Nc2nc(-c3ccccc3)cs2)nc2c1c(=O)n(C)c(=O)n2C,"inconclusive: 25.9 µM [activator, partial curve, poor fit]"
13,Cc1ccnc(NC(=O)CNC(=O)c2ccc3ccccc3c2)c1,active: 20.6 µM
14,CCOc1ccc(-c2nnc(SCC(=O)Nc3cc(C)on3)o2)cc1,"inconclusive: 32.6 µM [activator, partial curve, poor fit]"
15,Cc1ccc(NC(=O)C(=O)NCC2CCCO2)cc1 (configuration not stated),"inconclusive: 20.6 µM [activator, partial curve]"
16,Cc1cccc(NC(=O)c2n[nH]c([N+](=O)[O-])c2Br)c1C,"inconclusive: 3.66 µM [activator, partial curve]"
17,Cc1nc2c(C)cccc2cc1C(=O)N/N=C/c1ccc(N(C)C)cc1,inactive
18,Cc1ccc(NC(=O)c2ccc(C)cc2)cc1,"inconclusive: 2.31 µM [activator, partial curve]"
19,CCC(C)Sc1nc2c(c(=O)[nH]1)C(c1cccs1)C1=C(CCCC1=O)N2 (configuration not stated),inactive
20,Cc1ccc(NC(=O)CSc2nc3nc(C)cc(C)c3c(=O)[nH]2)cc1,"inconclusive: 35.5 µM [activator, partial curve, poor fit]"
21,Nc1nc(SCC(=O)N2CCCc3ccccc32)n[nH]1,inactive
